# Measurements from the supplement of paper PMC8728848.
# Some of the results follow.
# B1: LYVE-1 (Homo sapiens), Q9Y5Y7 (protein)
# chain: MARCFSLVLLLTSIWTTRLLVQGSLRAEELSIQVSCRIMGITLVSKKANQQLNFTEAKEACRLLGLSLAGKDQVETALKASFETCSYGWVGDGFVVISRISPNPKCGKNGVGVLIWKVPVSRQFAAYCYNSSDTWTNSCIPEIITTKDPIFNTQTATQTTEFIVSDSTYSVASPYSTIPAPTTTPPAPASTSIPRRKKLICVTEVFMETSTMSTETEPFVENKAAFKNEAAGDPEVKFNWYVDGVEVHNAKPREEQYNSTYRVVSLVTVLHQDWLNGKEYKCKVSNKALPAPIEKTISKAKGQPREPQVYTLPPSRDELTKNQVSLTCLVKGFYPSDIAVEWESNGQPENNYKTTPPVLDSDGSFFLYSKLTVDKSRWQQGNVFSCSVMHEALHNHYTQRSLSLSPGK
# Tests used:
# Experiment in all cases: glycan array binding signal (z-score within array); higher = stronger binding
# Settings in all cases: glycan notation: IUPAC condensed, linker removed
# Gal(b1-2)Gal = molecular target: Gal(b1-2)Gal
# Outline: (§1)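 Arrays were curated from the Consortium for Functional Glycomics database, 3228 in total, and kept only where the protein sequence was available. Binding is expressed as a within-array Z-score. This score was averaged across arrays of the same protein sequence at different concentrations or buffers and across linkers, and negative values can be read as non-binding.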
# Gal(b1-3)Gal = molecular target: Gal(b1-3)Gal
# Outline: as §1
# Gal(b1-3)Gal(b1-4)GlcNAc = molecular target: Gal(b1-3)Gal(b1-4)GlcNAc
# Outline: as §1
# Gal(b1-3)GalNAc = molecular target: Gal(b1-3)GalNAc
# Outline: as §1
# [1] = molecular target: Gal(b1-3)GalNAc(b1-3)Gal(a1-4)Gal(b1-4)Glc
# Outline: as §1
# [2] = molecular target: Gal(b1-3)GalNAc(b1-4)Gal(b1-4)Glc
# Outline: as §1
# [3] = molecular target: Gal(b1-3)GalNAc(b1-4)[Neu5Ac(a2-3)]Gal(b1-4)Glc
# Outline: as §1
# Gal(b1-3)GlcNAc = molecular target: Gal(b1-3)GlcNAc
# Outline: as §1
# [4] = molecular target: Gal(b1-3)GlcNAc(b1-2)Man(a1-3)[Gal(b1-3)GlcNAc(b1-2)Man(a1-6)]Man(b1-4)GlcNAc(b1-4)GlcNAc
# Outline: as §1
# [5] = molecular target: Gal(b1-3)GlcNAc(b1-3)Gal(b1-3)GlcNAc
# Outline: as §1
# [6] = molecular target: Gal(b1-3)GlcNAc(b1-3)Gal(b1-4)Glc
# Outline: as §1
# [7] = molecular target: Gal(b1-3)GlcNAc(b1-3)Gal(b1-4)GlcNAc
# Outline: as §1
# [8] = molecular target: Gal(b1-3)[Fuc(a1-4)]GlcNAc
# Outline: as §1
# [9] = molecular target: Gal(b1-3)[Fuc(a1-4)]GlcNAc(b1-3)Gal(b1-3)[Fuc(a1-4)]GlcNAc
# Outline: as §1
# [10] = molecular target: Gal(b1-3)[Fuc(a1-4)]GlcNAc(b1-3)Gal(b1-4)GlcNAc
# Outline: as §1
# [11] = molecular target: Gal(b1-3)[Fuc(a1-4)]GlcNAc(b1-3)Gal(b1-4)[Fuc(a1-3)]GlcNAc
# Outline: as §1
# [12] = molecular target: Gal(b1-3)[GlcNAc(b1-6)]GalNAc
# Outline: as §1
# [13] = molecular target: Gal(b1-3)[Neu5Ac(a2-6)]GalNAc
# Outline: as §1
# [14] = molecular target: Gal(b1-3)[Neu5Ac(a2-6)]GlcNAc(b1-6)Gal(b1-4)Glc
# Outline: as §1
# [15] = molecular target: Gal(b1-3)[Neu5Ac(b2-6)]GalNAc
# Outline: as §1
# [16] = molecular target: Gal(b1-4)GalNAc(a1-3)[Fuc(a1-2)]Gal(b1-4)GlcNAc
# Outline: as §1
# [17] = molecular target: Gal(b1-4)GalNAc(b1-3)[Fuc(a1-2)]Gal(b1-4)GlcNAc
# Outline: as §1
# Gal(b1-4)Glc = molecular target: Gal(b1-4)Glc
# Outline: as §1
# Gal(b1-4)Glc6S = molecular target: Gal(b1-4)Glc6S
# Outline: as §1
# Gal(b1-4)GlcNAc = molecular target: Gal(b1-4)GlcNAc
# Outline: as §1
# [18] = molecular target: Gal(b1-4)GlcNAc(a1-6)Gal(b1-4)GlcNAc
# Outline: as §1
# [19] = molecular target: Gal(b1-4)GlcNAc(b1-2)Man(a1-3)[Gal(b1-4)GlcNAc(b1-2)Man(a1-6)]Man(b1-4)GlcNAc(b1-4)GlcNAc
# Outline: as §1
# [20] = molecular target: Gal(b1-4)GlcNAc(b1-3)Gal(b1-3)GlcNAc
# Outline: as §1
# [21] = molecular target: Gal(b1-4)GlcNAc(b1-3)Gal(b1-4)Glc
# Outline: as §1
# [22] = molecular target: Gal(b1-4)GlcNAc(b1-3)Gal(b1-4)GlcNAc
# Outline: as §1
# [23] = molecular target: Gal(b1-4)GlcNAc(b1-3)Gal(b1-4)GlcNAc(b1-3)Gal(b1-4)GlcNAc
# Outline: as §1
# [24] = molecular target: Gal(b1-4)GlcNAc(b1-3)Gal(b1-4)[Fuc(a1-3)]GlcNAc(b1-3)Gal(b1-4)[Fuc(a1-3)]GlcNAc
# Outline: as §1
# [25] = molecular target: Gal(b1-4)GlcNAc(b1-3)GalNAc
# Outline: as §1
# [26] = molecular target: Gal(b1-4)GlcNAc(b1-3)[Gal(b1-4)GlcNAc(b1-6)]Gal(b1-4)GlcNAc
# Outline: as §1
# [27] = molecular target: Gal(b1-4)GlcNAc(b1-3)[GlcNAc(b1-6)]Gal(b1-4)GlcNAc
# Outline: as §1
# [28] = molecular target: Gal(b1-4)GlcNAc(b1-6)Gal(b1-4)GlcNAc
# Outline: as §1
# [29] = molecular target: Gal(b1-4)GlcNAc(b1-6)Gal(b1-4)GlcNAc(b1-6)GalNAc
# Outline: as §1
# [30] = molecular target: Gal(b1-4)GlcNAc(b1-6)GalNAc
# Outline: as §1
# [31] = molecular target: Gal(b1-4)GlcNAc(b1-6)[Gal(b1-3)]GalNAc
# Outline: as §1
# Gal3S(b1-3)GalNAc = molecular target: Gal3S(b1-3)GalNAc
# Outline: as §1
# Gal3S(b1-3)GlcNAc = molecular target: Gal3S(b1-3)GlcNAc
# Outline: as §1
# [32] = molecular target: Gal3S(b1-3)[Fuc(a1-4)]GlcNAc
# Outline: as §1
# Gal3S(b1-4)Glc = molecular target: Gal3S(b1-4)Glc
# Outline: as §1
# Gal3S(b1-4)Glc6S = molecular target: Gal3S(b1-4)Glc6S
# Outline: as §1
# Gal3S(b1-4)GlcNAc = molecular target: Gal3S(b1-4)GlcNAc
# Outline: as §1
# Gal3S(b1-4)GlcNAc6S = molecular target: Gal3S(b1-4)GlcNAc6S
# Outline: as §1
# [33] = molecular target: Gal3S(b1-4)[Fuc(a1-3)]Glc
# Outline: as §1
# Gal3S4S(b1-4)GlcNAc = molecular target: Gal3S4S(b1-4)GlcNAc
# Outline: as §1
# Gal3S6S(b1-4)GlcNAc = molecular target: Gal3S6S(b1-4)GlcNAc
# Outline: as §1
# Gal3S6S(b1-4)GlcNAc6S = molecular target: Gal3S6S(b1-4)GlcNAc6S
# Outline: as §1
# Gal4S(b1-4)GlcNAc = molecular target: Gal4S(b1-4)GlcNAc
# Outline: as §1
# Gal4S6S(b1-4)GlcNAc = molecular target: Gal4S6S(b1-4)GlcNAc
# Outline: as §1
# Gal6S(b1-4)Glc = molecular target: Gal6S(b1-4)Glc
# Outline: as §1
# Gal6S(b1-4)Glc6S = molecular target: Gal6S(b1-4)Glc6S
# Outline: as §1
# Gal6S(b1-4)GlcNAc = molecular target: Gal6S(b1-4)GlcNAc
# Outline: as §1
# Gal6S(b1-4)GlcNAc6S = molecular target: Gal6S(b1-4)GlcNAc6S
# Outline: as §1
# GalNAc(a1-3)Gal = molecular target: GalNAc(a1-3)Gal
# Outline: as §1
# GalNAc(a1-3)GalNAc = molecular target: GalNAc(a1-3)GalNAc
# Outline: as §1
# GalNAc(b1-3)Gal = molecular target: GalNAc(b1-3)Gal
# Outline: as §1
# [34] = molecular target: GalNAc(b1-3)Gal(a1-4)Gal(b1-4)GlcNAc
# Outline: as §1
binder,measurement,setting,value
B1,glycan array binding signal (z-score),Gal(b1-2)Gal,-0.409
same,glycan array binding signal (z-score),Gal(b1-3)Gal,0.411
same,glycan array binding signal (z-score),Gal(b1-3)Gal(b1-4)GlcNAc,0.222
same,glycan array binding signal (z-score),Gal(b1-3)GalNAc,0.044
same,glycan array binding signal (z-score),[1],-0.219
same,glycan array binding signal (z-score),[2],-0.278
same,glycan array binding signal (z-score),[3],0.269
same,glycan array binding signal (z-score),Gal(b1-3)GlcNAc,-0.254
same,glycan array binding signal (z-score),[4],-0.187
same,glycan array binding signal (z-score),[5],-0.363
same,glycan array binding signal (z-score),[6],-0.269
same,glycan array binding signal (z-score),[7],0.833
same,glycan array binding signal (z-score),[8],-0.191
same,glycan array binding signal (z-score),[9],0.188
same,glycan array binding signal (z-score),[10],-0.026
same,glycan array binding signal (z-score),[11],0.219
same,glycan array binding signal (z-score),[12],0.212
same,glycan array binding signal (z-score),[13],-0.597
same,glycan array binding signal (z-score),[14],0.137
same,glycan array binding signal (z-score),[15],0.269
same,glycan array binding signal (z-score),[16],-0.338
same,glycan array binding signal (z-score),[17],-0.293
same,glycan array binding signal (z-score),Gal(b1-4)Glc,-0.228
same,glycan array binding signal (z-score),Gal(b1-4)Glc6S,-0.12
same,glycan array binding signal (z-score),Gal(b1-4)GlcNAc,0.105
same,glycan array binding signal (z-score),[18],-0.497
same,glycan array binding signal (z-score),[19],-0.235
same,glycan array binding signal (z-score),[20],-0.512
same,glycan array binding signal (z-score),[21],-0.489
same,glycan array binding signal (z-score),[22],-0.92
same,glycan array binding signal (z-score),[23],0.54
same,glycan array binding signal (z-score),[24],0.481
same,glycan array binding signal (z-score),[25],-0.411
same,glycan array binding signal (z-score),[26],0.199
same,glycan array binding signal (z-score),[27],-0.385
same,glycan array binding signal (z-score),[28],0.014
same,glycan array binding signal (z-score),[29],0.286
same,glycan array binding signal (z-score),[30],1.13
same,glycan array binding signal (z-score),[31],-0.266
same,glycan array binding signal (z-score),Gal3S(b1-3)GalNAc,-0.36
same,glycan array binding signal (z-score),Gal3S(b1-3)GlcNAc,-0.22
same,glycan array binding signal (z-score),[32],-0.393
same,glycan array binding signal (z-score),Gal3S(b1-4)Glc,-0.939
same,glycan array binding signal (z-score),Gal3S(b1-4)Glc6S,0.229
same,glycan array binding signal (z-score),Gal3S(b1-4)GlcNAc,-0.036
same,glycan array binding signal (z-score),Gal3S(b1-4)GlcNAc6S,-0.695
same,glycan array binding signal (z-score),[33],-0.34
same,glycan array binding signal (z-score),Gal3S4S(b1-4)GlcNAc,0.073
same,glycan array binding signal (z-score),Gal3S6S(b1-4)GlcNAc,-0.372
same,glycan array binding signal (z-score),Gal3S6S(b1-4)GlcNAc6S,-0.298
same,glycan array binding signal (z-score),Gal4S(b1-4)GlcNAc,-0.517
same,glycan array binding signal (z-score),Gal4S6S(b1-4)GlcNAc,-0.679
same,glycan array binding signal (z-score),Gal6S(b1-4)Glc,0.018
same,glycan array binding signal (z-score),Gal6S(b1-4)Glc6S,-0.632
same,glycan array binding signal (z-score),Gal6S(b1-4)GlcNAc,-0.513
same,glycan array binding signal (z-score),Gal6S(b1-4)GlcNAc6S,0.105
same,glycan array binding signal (z-score),GalNAc(a1-3)Gal,-0.363
same,glycan array binding signal (z-score),GalNAc(a1-3)GalNAc,-0.803
same,glycan array binding signal (z-score),GalNAc(b1-3)Gal,-0.572
same,glycan array binding signal (z-score),[34],-0.532
